Results published in PubChem BioAssay AID686978 (National Center for Advancing Translational Sciences (NCATS), 2013).
Among all 420,000 compounds or so, about 64,000 (15%) were called active. Inconclusive results, whose numbers are uncertain, are shown with a selection of clear calls. Calls follow the shape of the dose curve; as a rule, active = well fitted inhibition curve with a large enough effect; inconclusive = small, poorly fitted or top-dose-only effect; inactive = flat fitted curve, though single readings scatter. Potencies of inconclusive entries are left out as doubtful fits.

test: qHTS for Inhibitors of human tyrosyl-DNA phosphodiesterase 1 (TDP1): qHTS in cells in absence of CPT; conditions: DT40 Tdp1-/- hTDP1 cells, no CPT, ATP luminescence, 48 h; activity change, negative = growth inhibition: at 46.2 µM (top of the series) unless noted; also: nearly all actives have a fitted effect of over 55% in size
Outline: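 DT40 Tdp1-/-;hTDP1 cells, no CPT (DMSO vehicle only), 400 cells/well; compounds pin-transferred; ≥48 hr, 37 °C; CellTiter-Glo 30 min RT dark, luminescence read.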
% is scaled to controls: 0 for no effect and ±100 for the full control effect; potency is read from the fitted curve at half-maximal effect; tags tell the direction and shape of the fitted curve.

Compound | Potency | activity change, negative = growth inhibition
Cc1ccc(S(=O)(=O)n2cnc3ccccc32)cc1 | inactive | –
Cc1ccccc1OCCSCc1nc2ccccc2[nH]1 | inconclusive [inhibitor, single point] | –
CCCNC(=O)c1ccc2c(=O)c(O)c(-c3ccc(F)cc3)[nH]c2c1 | inconclusive [inhibitor, single point] | –
COc1ccccc1NC(=O)C(C)Nc1ccc(C)c(Cl)c1 (stereo not given) | inconclusive [inhibitor, single point] | –
CCC(C)(C)n1nnnc1CN1CCC(O)(c2cccc(C(F)(F)F)c2)CC1 | inconclusive [inhibitor, single point] | –
CCOc1ccc(CCNC(=O)CN2C(=O)NC3(CCCC3)C2=O)cc1OCC | inactive | –
c1ccc(Oc2ccc(-c3ccnc4nc(N5CCN(c6ccccc6)CC5)nn34)cc2)cc1 | inconclusive [inhibitor, single point] | –
Cc1oc(-c2ccc(Cl)cc2)nc1CS(=O)CC(=O)NC(C)c1ccccc1 (stereo not given) | inconclusive [inhibitor, single point] | –
N/C(Cc1ccc([N+](=O)[O-])cc1)=N\OC(=O)CC1CCCCC1 | inconclusive [inhibitor, single point] | –
CC(C)CC1C(=O)N(Cc2cn(CCC3OCCCO3)nn2)CCS(=O)(=O)N1Cc1ccc(-c2ccc(Cl)nc2)cc1 (stereo not given) | active: 20.6 µM | –
CCCCn1c(N)c(N(CC(C)C)C(=O)C2CC(=O)N(CCc3ccccc3)C2)c(=O)[nH]c1=O (stereo not given) | inactive | –
Fc1ccccc1-c1nc(-c2ccc(Br)o2)no1 | inactive | –
Cc1ccc(CS(=O)(=O)CCC(=O)O)cc1 | inactive | –
Cc1ccc(SCC(=O)NCCC2=CCCCC2)cc1 | inconclusive [inhibitor, single point] | –
CCOC(=O)N1CCN(C(=O)C2CCN(C(=O)c3ccc(C(C)(C)C)cc3)CC2)CC1 | inconclusive [inhibitor, single point] | –
COc1cccc(/C=C/C(=O)Nc2cccc(C(C)=O)c2)c1OC | inconclusive [inhibitor, single point] | –
Cc1cccc2nc(-c3cccnc3)c(Nc3ccc(C(C)C)cc3)n12 | active: 16.4 µM | –
Cc1oc2c(CN3CCCCC3)c(O)ccc2c(=O)c1-c1ccc(Cl)cc1 | inactive | –
CCN(Cc1ccccc1)C(=O)c1ccc(CNS(=O)(=O)c2ccc(C)cc2)cc1 | inconclusive [inhibitor, single point] | –
CCOC(=O)[C@H]1[C@H]2COc3ccccc3[C@@H]2N2C(=O)CN(Cc3ccccc3)C(=O)[C@@]12C | inactive | –
CCc1ccc(NC(=O)C(C)OC(=O)/C=C/c2ccc(O)c(OC)c2)cc1 (stereo not given) | inconclusive [inhibitor, partial curve, poor fit] | –
CCO[C@H]1OC(C(=O)O)=C[C@@H](C)[C@@H]1CCCO | inactive | –
O=C1N=C(N2CCOCC2)S/C1=C/c1cccs1 | inactive | –
COc1ccc(NC(=O)C2=C(C)Nc3nc(SCc4ccccc4C)nn3C2c2ccc(Br)cc2)cc1 (stereo not given) | inconclusive [inhibitor, single point] | –
CN(C(=O)COC(=O)c1ccccc1Nc1ccccc1)C1CCS(=O)(=O)C1 (stereo not given) | inactive | –

Compound | Potency | activity change, negative = growth inhibition
CCOc1ccc(CN2CCN(Cc3[nH]c4ccccc4c3C)CC2CCO)cc1 (stereo not given) | inconclusive [inhibitor, single point] | –
O=C(c1csc2c1CCCC2)N1CCN(c2ccc(F)cc2)CC1 | inconclusive [inhibitor, single point] | –
O=C1C(Cl)=C(N2CCCCCC2)C(=O)N1c1ccc(Cl)cc1 | inconclusive [inhibitor, single point] | –
COc1cc(NC(=O)c2ccc(Cl)cc2)c(OC)cc1NC(=O)CN1CCOCC1 | inconclusive [inhibitor, single point] | –
Cn1c2c(c(=O)n(C)c1=O)C(c1ccc(Br)cc1)Nc1ccccc1O2 (stereo not given) | inconclusive [inhibitor, single point] | –
O=C(NC1CC1)C1=C[C@H](C2CCCCC2)C[C@H](OCCCCO)O1 | inconclusive [inhibitor, partial curve] | –
Cn1c(=O)c2[nH]c(COc3ccccc3)nc2n(C)c1=O | inconclusive [inhibitor, partial curve, poor fit] | –
COc1ccc(-c2cc(C(F)(F)F)c(C#N)c(SCC(=O)Nc3ccc(C)cc3)n2)cc1 | inconclusive [inhibitor, single point] | –
COc1ccc(-c2cn3cccnc3n2)cc1F | inactive | –
NC1(C(=O)O)CCCC1 | inactive | –
Cc1ccc(NC(=O)C2CC(=O)Nc3nc4ccccc4n32)c(C)c1 (stereo not given) | – | inconclusive: -36.9% [inhibitor]
COc1cccc(Nc2cc(N3CCOCC3)c3nonc3c2[N+](=O)[O-])c1 | active: 18.4 µM | –
O=C(CCNC(=O)N1CCn2c1nc1ccccc12)NCc1ccccc1 | inactive | –
CCOC(=O)c1sc(Nc2nc(C)cc(C)n2)nc1C | active: 6.51 µM | –
Cc1cccc(NC(=O)C2CCN(S(=O)(=O)c3cccc4nsnc34)CC2)c1C | inactive | –
Cc1ccc(C(=O)NCCCc2ccccc2)s1 | inactive | –
O=C(CN1C(=O)c2ccccc2C1=O)NC1CCC(O)CC1 (stereo not given) | inactive | –
CC1CN(c2ccc([N+](=O)[O-])cc2F)CCN1C(=O)c1ccco1 (stereo not given) | inconclusive [inhibitor, single point] | –
COc1cc2c(cc1OC)CN(Cc1cc(=O)n3cc(C)ccc3n1)CC2 | – | inconclusive: -30.8% [inhibitor]
CCOc1ccccc1NC(=O)CCc1nnc2ccc(N3CCC(C)CC3)nn12 | inconclusive [inhibitor, single point] | –
CC(=O)c1cc(C#N)c(SCC(=O)OC(C)(C)C)nc1C | inconclusive [inhibitor, single point] | –
COc1ccc(NC(=O)C(=O)NNC(=O)COc2ccc(Cl)cc2)c(OC)c1 | – | inconclusive: -32.1% [inhibitor]
COc1ccc(CCC(=O)Nc2c(C)n(C)n(-c3ccccc3)c2=O)cc1 | inactive | –
COc1cccc(C(=O)NC(=S)Nc2ccc3c4c(cccc24)CC3)c1 | inconclusive [inhibitor, single point] | –
Cc1ccc(S(=O)(=O)N2CCC(C(N)=O)CC2)c(C)c1C | – | inconclusive: -30.6% [inhibitor]

Compound | Potency | activity change, negative = growth inhibition
COc1cc2ccccc2cc1C(=O)N1CC(C)OC(C)C1 (stereo not given) | – | inconclusive: -31.5% [inhibitor]
O=C1NC[C@H](CCCCN2C[C@H](Cc3ccc(O)cc3)N(CCC3CCCCC3)C(=O)C2=O)N(CCc2ccc(O)cc2)C1=O | inactive | –
CCN(C[C@H]1N[C@@](Cc2ccccc2)(C(=O)OC)[C@H]2C(=O)N(C)C(=O)[C@@H]12)C(=O)C1CCCCC1 | inactive | –
N#C/C(C(=O)Oc1ccccc1)=C1\C=CC=CN1 | inactive | –
Cc1ccc(S(=O)(=O)N(C)C)cc1NC(=O)c1cc(S(=O)(=O)N2CCCCC2)ccc1N1CCOCC1 | active: 11.6 µM | –
CN(C(=O)c1cc(-c2ccccc2O)on1)c1ccccc1 | inconclusive [inhibitor, single point] | –
COc1ccc(S(=O)(=O)N2CCC(c3ccncc3)CC2)cc1Cl | inconclusive [inhibitor, partial curve] | –
C[C@H](NC(=O)c1ccc(C(C)(C)C)cc1)C(=O)N1CCN(C/C=C/c2ccccc2)CC1 | active: 20.6 µM | –
Cc1cccc(CN2CCC(C(=O)Nc3ccc(-n4nc(C)cc4C)cc3)CC2)n1 | inconclusive [inhibitor, partial curve] | –
COc1cccc(CC(=O)Nc2cc(S(=O)(=O)N3CCOCC3)ccc2OC)c1 | inactive | –
CCN(CC)CCn1c2c(c(SCC(=O)Nc3ccc(C)c(F)c3)nc1=O)CCCC2 | inconclusive [inhibitor, single point] | –
Cc1cc(C)c2oc(C(=O)N(Cc3ccc(F)cc3)C3CCS(=O)(=O)C3)cc(=O)c2c1 (stereo not given) | inactive | –
COC(=O)C1=CN(c2ccc3c(c2)OCO3)C(N)=C(C#N)C1c1cccc(F)c1 (stereo not given) | active: 0.651 µM | –
Cc1ccc(NS(=O)(=O)c2cccc(C(=O)OCC(=O)NCc3ccco3)c2)cc1 | inconclusive [inhibitor, partial curve] | –
COc1ccccc1CN(CC(=O)NCc1ccc(F)cc1)C(=O)c1csnn1 | inactive | –
Cc1nc(SCC(=O)Nc2cccnc2Cl)nc(C)c1C | inactive | –
Cc1cc(C(=O)Cn2cnc3ccc(Cl)cc3c2=O)c(C)n1C1CC1 | inactive | –
Cc1ccccc1-n1ncc2c1CC(C)(C)CC2NC(=O)CCC(F)(F)F (stereo not given) | inconclusive [inhibitor, single point] | –
CCN1CCN(C(c2ccc(OC)cc2)c2c(O)cc(C)n(CCOC)c2=O)CC1 (stereo not given) | inactive | –
Fc1cccc(Cc2noc(CN3CCN(c4cnccn4)CC3)n2)c1 | inactive | –
COCCCNCC1C(Oc2ccc(Cl)cc2)C(=O)N1c1ccccc1C (stereo not given) | active: 16.4 µM | –
COC(=O)c1[nH]c2c(c1C)C(=O)CC(c1ccc(OC)cc1)C2 (stereo not given) | inconclusive [inhibitor, single point] | –
Cc1ccc(F)c(S(=O)(=O)NC(=O)C2(C)CCN2C(=O)CCC2CCCC2)c1 (stereo not given) | inactive | –
CCOC(=O)c1ccc(NS(=O)(=O)c2cc(C)ccc2OC)cc1 | inconclusive [inhibitor, partial curve] | –
N#Cc1ccc(CN2CC[C@@]3(CCCN(C(=O)c4cccc(F)c4)C3)C2)cc1 | inconclusive [inhibitor, single point] | –
